Experimental data published in PMC4336329 (PLoS ONE, 2015).
Out of some 310,000 compounds screened, about 2,200 (0.71%) showed an effect of 50% or more. The effect is printed as a negative number. This is one part of the list.

Each molecule was assayed against human ether-à-go-go-related gene (hERG) potassium channel (human, UniProt Q12809) (assay: primary screen, population patch clamp on CHO cells stably expressing hERG).
Chain of human ether-à-go-go-related gene (hERG) potassium channel (Q12809 whole entry, looked up): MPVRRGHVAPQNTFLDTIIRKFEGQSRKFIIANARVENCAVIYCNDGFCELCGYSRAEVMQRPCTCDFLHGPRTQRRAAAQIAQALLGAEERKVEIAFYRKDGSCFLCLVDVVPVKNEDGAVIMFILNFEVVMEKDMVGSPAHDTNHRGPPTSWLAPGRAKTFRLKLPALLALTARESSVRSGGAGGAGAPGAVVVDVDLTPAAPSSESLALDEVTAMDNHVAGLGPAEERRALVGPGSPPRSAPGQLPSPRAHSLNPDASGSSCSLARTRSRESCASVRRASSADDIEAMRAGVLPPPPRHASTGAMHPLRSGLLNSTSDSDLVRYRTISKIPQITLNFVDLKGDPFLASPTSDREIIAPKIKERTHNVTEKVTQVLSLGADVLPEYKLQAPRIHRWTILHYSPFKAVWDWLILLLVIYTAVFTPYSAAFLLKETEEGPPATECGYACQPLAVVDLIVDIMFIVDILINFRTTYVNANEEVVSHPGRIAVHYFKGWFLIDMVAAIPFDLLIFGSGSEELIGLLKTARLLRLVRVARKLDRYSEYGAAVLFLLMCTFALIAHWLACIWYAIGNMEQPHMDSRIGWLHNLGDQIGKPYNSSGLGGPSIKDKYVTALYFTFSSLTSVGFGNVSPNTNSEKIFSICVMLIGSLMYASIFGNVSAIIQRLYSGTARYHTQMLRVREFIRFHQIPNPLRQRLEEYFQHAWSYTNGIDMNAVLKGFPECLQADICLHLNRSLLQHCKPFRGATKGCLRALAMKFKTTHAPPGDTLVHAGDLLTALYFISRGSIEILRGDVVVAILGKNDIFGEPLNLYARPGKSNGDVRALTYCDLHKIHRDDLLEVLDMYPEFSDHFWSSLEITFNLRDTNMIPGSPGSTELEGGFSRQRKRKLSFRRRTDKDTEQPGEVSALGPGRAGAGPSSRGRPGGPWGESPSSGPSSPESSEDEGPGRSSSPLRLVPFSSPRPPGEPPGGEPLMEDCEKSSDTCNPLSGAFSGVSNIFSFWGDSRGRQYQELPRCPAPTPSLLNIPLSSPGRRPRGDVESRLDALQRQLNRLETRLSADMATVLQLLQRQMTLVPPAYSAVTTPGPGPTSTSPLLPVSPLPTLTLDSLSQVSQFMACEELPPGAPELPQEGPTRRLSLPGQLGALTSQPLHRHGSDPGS

Row | Structure (SMILES) | hERG current change (%, negative = inhibition) at 1uM [%]
1 | Cn1c2ccccc2c2c(C(=O)NCC3CCCO3)cn(C3CCCC3)c(=O)c21 (centres unmarked) | 14.1
2 | CCOC(=O)N1CCC(NC(=O)c2cc(S(=O)(=O)NCCc3ccccc3)ccc2F)CC1 | 3.72
3 | CCOC(=O)c1c(NC(=O)c2cccs2)sc2c1CCCC2 | 13.2
4 | Cc1ccc(C)c(OCCCCCn2ccnc2)c1 | -5.73
5 | O=C(O)/C=C/C(=O)Nc1ccc(S(=O)(=O)Nc2nccs2)cc1 | 11.6
6 | CCC(=O)c1ccc(OCC(=O)OCC(=O)NC2CCCCCCC2)cc1 | 16.8
7 | O=C(NN1CCOCC1)c1sc2cccc(F)c2c1Cl | 7.3
8 | COC(=O)C(C)(C)ONC(=O)Nc1ccc(C)cc1 | -1.44
9 | COc1ccc(CN2CCN(c3ccccn3)CC2)cc1OCc1ccccc1 | -22.5
10 | COCCNC(=O)CN(C(=O)CCC(=O)Nc1ccccn1)c1ccc(C)cc1C | 7.71
11 | OC1(c2cccnc2)CC2CCC(C1)N2Cc1nnnn1Cc1ccccc1 (centres unmarked) | -4.36
12 | CC1CC(C)CN(C(=O)COC(=O)c2ccc3c(c2)C(=O)N(Cc2ccco2)C3=O)C1 (centres unmarked) | -8.39
13 | CC(=O)c1cccc(NC(=O)COC(=O)c2ccccn2)c1 | 8.6
14 | COCCNc1nc2ccccc2nc1NS(=O)(=O)c1ccc(C)cc1C | 10.6
15 | CCCc1cc(C(=O)Nc2ccc(C)cc2)no1 | 1.49
16 | COc1ccc(C2CC(=O)NC(=O)C2)cc1 | 17.4
17 | CCC(=O)c1ccc(OCC(=O)O)c(OC)c1 | 8.14
18 | CN(CC(=O)Nc1ccc(F)cc1)C(=O)COC(=O)C1CCN(c2ccc(C(F)(F)F)cn2)CC1 | -37.3
19 | CC1=C(CCN2CCN(C(C)C)C(CCO)C2)C(C)(C)CCC1 (centres unmarked) | 6.4
20 | O=C(NC1CCCC1)C1CCN(C(=O)c2cc(Cl)ccc2Cl)CC1 | 6.24
21 | O=C1CC2(CCCCC2)Oc2ccccc21 | 14.7
22 | CCN=C1SC(C(=O)NCCc2ccccc2)CC(=O)N1CC (centres unmarked) | 3.92
23 | CCOC(=O)c1cccc(NC(=O)Nc2cc(OC)ccc2OC)c1 | 9.51
24 | O=C(CN1CCN(c2ccc(O)cc2)CC1)N1CCc2ccccc21 | 15.9

Row | Structure (SMILES) | hERG current change (%, negative = inhibition) at 1uM [%]
25 | CCNS(=O)(=O)c1ccc(NC(=O)c2ccccc2SCCOC)cc1 | 6.03
26 | CC1CCCN(C(=O)CCl)C1 (centres unmarked) | 12.8
27 | COC(=O)Nc1ccc(OCc2ccccc2)cc1 | 0.595
28 | CCOC(=O)c1[nH]c2c(c1C)C(=O)CC(c1ccc(N(C)C)cc1)C2 (centres unmarked) | -8.28
29 | COc1cc([N+](=O)[O-])cc(/C=N/NC(=O)c2ccc(C)nc2)c1O | 12.9
30 | CCN(CC)CCNCc1ccc(Br)cc1OCC(=O)NCc1ccccc1.Cl | -7.7
31 | Nc1ccccc1Sc1ccc(C(=O)c2ccccc2C(=O)O)cc1[N+](=O)[O-] | 5.16
32 | CC/C(=N\Nc1ccccc1)c1c(O)n(-c2ccccc2)c(=O)[nH]c1=O | 11.9
33 | Cc1ccccc1NC(=O)c1cc2ccccc2o1 | 14.7
34 | COc1cccc(OC)c1C(=O)Nc1ccccc1C(=O)N1CCCC1 | -3.78
35 | CN(CC(=O)Nc1cccc(F)c1)CC(=O)Nc1cccc(S(=O)(=O)N2CCCCCC2)c1 | 5.75
36 | CN(C)CCOCCSc1ccc(Cl)cc1.O=C(O)C(=O)O | 1.04
37 | O=C(O)c1ccc(-c2ccccn2)s1 | 0.95
38 | COc1cc(O)c(C(CCN2CCCC(C)C2)c2cc(OC)c(OC)c(OC)c2)c(OC)c1 (centres unmarked) | 6.98
39 | CCCCCn1c(=O)c(C(=O)Nc2cccc(C)c2)c(O)c2ccccc21 | 14
40 | COc1ccc(-n2c(N)c(C(=O)NCc3cccnc3)sc2=S)cc1 | 10.8
41 | Cc1ccc(Nc2cc(C)nn2-c2nc(C)cc(C)n2)cc1 | 10.8
42 | Cc1ccc(SCCC(=O)NC(C(C)C)C(C)C)cc1 | -4.77
43 | CCOC(=O)c1sc(NC(=O)CSc2nccn2C)nc1C | 2.36
44 | CCOC(=O)CC1CCCCN1C(=O)CCCn1nnnc1CN1CCC(C)CC1 (centres unmarked) | 11.9
45 | CC(C)CN(C(=O)c1nn(C)c(=O)c2ccccc12)c1nc2ccccc2s1 | 5.33
46 | CC(=O)[C@@H]1[C@@H]2C(=O)N(Cc3ccccc3)C(=O)[C@@H]2C2c3ccccc3C=CN21 (some centres unmarked) | 12.9
47 | Nc1ncncc1-c1ccc2ccccc2c1 | 13.9
48 | CCCCNS(=O)(=O)c1ccc(OC)c(Cl)c1Cl | -2

Row | Structure (SMILES) | hERG current change (%, negative = inhibition) at 1uM [%]
49 | COCCCNC(=O)c1c(-c2ccccc2)noc1C | 12.9
50 | O=C(Nc1ccc(F)cc1F)Nc1ccccc1C(=O)NCCN1CCNC1=O | 14
51 | Cc1ccc(CSC2=NCCN2C(=O)c2ccco2)cc1 | 3
52 | CS(=O)(=O)N(CC(=O)N1CCCCCC1)c1cccc(Cl)c1Cl | 14
53 | O=C1NC2=C(CCc3ccccc32)C(c2ccccc2)N1 (centres unmarked) | 6.7
54 | Cc1ccc(N/C(CSC(N)=O)=N\S(=O)(=O)c2ccc(C)cc2)cc1 | 13.9
55 | CC(=O)OC1OCCOC1NC(=S)Nc1cccc(C(F)(F)F)c1 (centres unmarked) | 16.7
56 | NC(=O)CNC(=O)[C@@H]1CC2(CC(c3cccc([N+](=O)[O-])c3)=NO2)CN1C(=O)c1ccccc1 (some centres unmarked) | 12.8
57 | Nc1nc(CN2CCCCCC2)nc(Nc2ccccc2)n1 | -31.9
58 | Cc1ccccc1OCC(=O)NCCN1CCCC1.Cl | 3.66
59 | CC(=O)c1ccc(N2CCN(C(C)C(=O)NC3CCCc4ccccc43)CC2)cc1 (centres unmarked) | -9.57
60 | CNC(=O)Nc1ccc(Cl)cc1 | 5.01
61 | O=C(/C=C/c1ccco1)Oc1cccc2cccnc12 | 4.54
62 | C=CCn1c(O)c(C(C)=NC2CC2)c(=O)[nH]c1=O | 8.55
63 | Cc1cc(NC(=O)CSc2nnc(C)o2)no1 | 14
64 | Cc1cccc(C(C)(C)C)c1OCCn1ccnc1 | 6.51
65 | CNC(=O)c1c(NC(=O)CCS(=O)(=O)c2ccc(F)cc2)sc(C)c1C | 7.75
66 | O=C(NCCN1CCN(C(=O)NC2CCCCC2)CC1)NC1CCCCC1 | 18.3
67 | FC(F)(F)c1cnc(Sc2ncn[nH]2)c(Cl)c1 | 3.28
68 | CN(C)c1ccc(CN(C)C2CCCCC2)cc1 | 11.8
69 | Cc1ccc(C)c(C(C)NC(=S)NCc2ccc(F)cc2)c1 (centres unmarked) | 15.1
70 | CCOC(=O)NC(=O)CSc1nnnn1-c1ccc(C)cc1 | 6.56
71 | O=S(=O)(Cc1ccccc1)N1CCN(c2ncccn2)CC1 | 18.7
72 | Cc1c(CC(=O)N2C[C@H]3C[C@@H](C2)c2cccc(=O)n2C3)c(=O)oc2cc3occ(C(C)(C)C)c3cc12 | -56.8

Row | Structure (SMILES) | hERG current change (%, negative = inhibition) at 1uM [%]
73 | CN(C(=O)CCn1c(=S)oc2ccccc21)c1ccc(F)cc1 | -3.7
74 | O=C(N/N=C1/CCCc2ccccc21)C(c1ccccc1)c1ccccc1 | -15.8
75 | Cc1nnc(NC(=O)CSc2nccn2C)s1 | 7.66
76 | CNC(=O)c1ccc(Nc2nnc(-c3ccc(O)cc3)c3ccccc23)cc1 | 12.8
77 | S=C(NC1CCCC1)NN1CCOCC1 | 7.97
78 | CN(CC(=O)Nc1ccccc1Cl)C(=O)CSc1nncn1C | 10.5
79 | CCOc1ccc(-n2c(=O)cc(N3CCN(c4ccc(F)cc4)CC3)[nH]c2=O)cc1 | 9
80 | CCOC(=O)c1ccc(CSc2nnc(-c3ccncc3)n2N)cc1 | 7.04
81 | CC1CN(S(=O)(=O)c2ccc(C(=O)Nc3ccc(S(=O)(=O)Nc4nccs4)cc3)cc2)CC(C)O1 (centres unmarked) | 7.33
82 | CC(C)(C)CC(=O)NC(=S)NCCc1ccccc1 | -0.941
83 | Cc1cc(OCCCC(=O)NCc2cccs2)ccc1Cl | 15
84 | CCCCN(C(=O)Cn1nnc2ccccc21)C(C(=O)NCCOC)c1ccccc1 (centres unmarked) | 6.24
85 | O=S(=O)(ON(c1ccccc1)S(=O)(=O)c1ccccc1)c1ccccc1 | 7.23
86 | Cc1ccccc1N=Nc1ccc(O)c2ncccc12 | 14.1
87 | C/C(=N/OC(=O)c1ccc(Br)cc1)c1ccc(C)cc1 | 16.6
88 | CCOc1ccccc1OCCCCOc1ccccc1F | -3.67
89 | O=C(O)C(=O)O.OC(CON=C1c2ccccc2-c2ccccc21)CN1CCNCC1 (centres unmarked) | 0.0354
90 | Cc1cc(C)n2[nH]c(=O)c(N=Nc3cccc(Cl)c3)c2n1 | 4.83
91 | CC(Sc1nccn1C)C(=O)Nc1ccc(C(N)=O)cc1 (centres unmarked) | 3.5
92 | COCc1cc(=O)[nH]c(N2CCN(c3ccccc3OC)CC2)n1 | -1.43
93 | Cc1cc(C)c(NC(=S)NC(CO)(CO)CO)c(C)c1 | 13.9
94 | O=C(CSc1nc(O)cc(=O)[nH]1)C1CC1 | 9.55
95 | CC(C)(C)c1nnc2sc(SCC(=O)NCc3ccco3)nn2c1=O | -4.7
